“And” between values parts separate entries of the source, which are not always exact repeats. Equal entries are not always repeated. The name of at least one read-out is uncertain.
Test system: Male Sprague Dawley rats
Assay: Inhibition of Icilin-Induced "Wet-Dog" Shakes in Rats
Assay type: in vivo, rat
Description: Male Sprague Dawley rats (220-450 g, Charles River Labs, n=6-9/treatment) were used to evaluate the ability of selected compounds of the formula (I) to block icilin-induced “wet-dog” shakes (WDS). Compounds of the formula (I) were administered in an appropriate vehicle, such as hydroxypropyl-β-cyclodextrin (HPβCD), methocellulose, 10% Solutol, or H2O, or the like, by the appropriate route, i.p. or p.o., 30-120 minutes before icilin. Icilin was administered in PEG-400 or 10% solutol/H2O, at 1.0 or 3.0 mg/kg, i.p. and spontaneous “wet-dog” shakes were counted 10-20 minutes post-icilin. Results are presented as a percent inhibition of shakes, which was calculated as [1-(test compound WDS count/vehicle WDS count)]×100.

[1] = dose 3 p.o., HPbCD, 30 min pre-icilin, Na salt form
[2] = dose 30 p.o., HPbCD, 30 min pre-icilin, CO2H form
[3] = dose 30 p.o., HPbCD, 30 min pre-icilin, Na salt form
[4] = dose 100 p.o., HPbCD, 30 min pre-icilin, Na salt form
[5] = dose 10 p.o., HPbCD, 30 min pre-icilin, Na salt form
[6] = dose 30 p.o., Water, 30 min pre-icilin, Na salt form
[7] = dose 10 p.o., HPbCD, 60 min pre-icilin, Na salt form
[8] = dose 30 p.o., HPbCD, 60 min pre-icilin, Na salt form
[9] = dose 30 p.o., Water, 60 min pre-icilin, Na salt form

CCCCN(c1sc2ccccc2c1Br)S(=O)(=O)c1ccc(C(=O)O)cc1 [Compound 272, N-(3-Bromo-benzo[b]thiophen-2-yl)-N-(butyl)-4-carboxy-benzenesulfonamide]
% Inhibition [1]: 0%
% Inhibition (dose 3 p.o., methocel, 30 min pre-icilin, CO2H form): 26%
% Inhibition (dose 10 p.o., methocel, 30 min pre-icilin, CO2H form): 23%
% Inhibition [2]: 37%
% Inhibition [3]: 72% and 74%
% Inhibition (dose 30 p.o., methocel, 30 min pre-icilin, CO2H form): 43%
% Inhibition [4]: 75%

O=C(O)c1ccc(S(=O)(=O)N(CC2CC2)c2sc3ccccc3c2Br)cc1 [Compound 273, N-(3-Bromo-benzo[b]thiophen-2-yl)-N-(cyclopropylmethyl)-4-carboxy-benzenesulfonamide]
% Inhibition [5]: 17%
% Inhibition [3]: 39% and 25%
% Inhibition [4]: 71%

CCS(=O)(=O)N(CCOC(C)(C)C)c1sc2ccccc2c1C(C)O (stereo not drawn) [Compound 283, N-(2-tert-Butoxyethyl)-N-(3-(1-hydroxyethyl)benzo[b]thiophen-2-yl)-ethanesulfonamide]
% Inhibition [1]: 13%
% Inhibition [5]: −19%
% Inhibition [6]: 71%
% Inhibition [4]: 43%

O=C(O)c1ccc(S(=O)(=O)N(Cc2ccc(F)c(C(F)(F)F)c2)c2cc3ccccc3s2)cc1 [Compound 296, N-(Benzo[b]thiophen-2-yl)-N-(4-fluoro-3-trifluoromethyl-benzyl)-4-carboxy-benzenesulfonamide]
% Inhibition [3]: 27%

Cc1c(N(Cc2ccc(F)c(C(F)(F)F)c2)S(=O)(=O)c2ccc(C(=O)O)cc2)sc2ccccc12 [Compound 306, N-(3-Methyl-benzo[b]thiophen-2-yl)-N-(4-fluoro-3-trifluoromethyl-benzyl)-4-carboxy-benzenesulfonamide]
% Inhibition (dose 0.3 p.o., HPbCD, 60 min pre-icilin, Na salt form): 39%
% Inhibition (dose 1 p.o., HPbCD, 60 min pre-icilin, Na salt form): 9%
% Inhibition (dose 3 p.o., HPbCD, 60 min pre-icilin, Na salt form): 63% and 64%
% Inhibition [7]: 99% and 98%
% Inhibition [8]: 99% and 100%

O=C(O)c1cccc(S(=O)(=O)N(Cc2ccc(F)c(C(F)(F)F)c2)c2sc3ccccc3c2Cl)c1 [Compound 307, N-(3-Chloro-benzo[b]thiophen-2-yl)-N-(4-fluoro-3-trifluoromethyl-benzyl)-3-carboxy-benzenesulfonamide]
% Inhibition [2]: 13%

CNS(=O)(=O)N(Cc1ccc(F)c(C(F)(F)F)c1)c1sc2ccccc2c1Cl [Compound 309, N-(3-Chloro-benzo[b]thiophen-2-yl)-N-(4-fluoro-3-trifluoromethyl-benzyl)-N′-methyl-sulfamide]
% Inhibition [2]: 23%

CC(C)(O)c1c(N(Cc2ccc(F)c(C(F)(F)F)c2)S(=O)(=O)c2ccc(C(=O)O)cc2)sc2ccccc12 [Compound 361, N-(4-Fluoro-3-trifluoromethylbenzyl)-N-(3-(1-hydroxy-1-methyl-ethyl)-benzo[b]thiophen-2-yl)-4-carboxy-benzenesulfonamide]
% Inhibition (dose 3 p.o., Water, 120 min pre-icilin, Na salt form): 38%
% Inhibition (dose 10 p.o., Water, 120 min pre-icilin, Na salt form): 74%
% Inhibition [2]: 87%
% Inhibition (dose 30 p.o., Water, 120 min pre-icilin, Na salt form): 98%

O=C(O)c1ccc(S(=O)(=O)N(CCCC(F)(F)F)c2sc3ccccc3c2Br)cc1 [Compound 394, N-(3-Bromo-benzo[b]thiophen-2-yl)-N-(4,4,4-trifluoro-butyl)-4-carboxy-benzenesulfonamide]
% Inhibition [3]: 63%

O=C(O)c1ccc(S(=O)(=O)N(CCC2CC2)c2sc3ccccc3c2Br)cc1 [Compound 396, N-(3-Bromo-benzo[b]thiophen-2-yl)-N-(2-cyclopropylethyl)-4-carboxy-benzenesulfonamide]
% Inhibition [3]: 99%

Cc1c(N(Cc2ccc(F)c(C(F)(F)F)c2)S(=O)(=O)c2ccc(C(=O)O)cc2)sc2cc(F)ccc12 [Compound 427, N-(6-Fluoro-3-methyl-benzo[b]thiophen-2-yl)-N-(4-fluoro-3-trifluoromethyl-benzyl)-4-carboxy-benzenesulfonamide]
% Inhibition [6]: 82%

CCCCN(C1=C(Br)c2ccccc2S1(=O)=O)S(=O)(=O)c1ccc(C(=O)O)cc1 [Compound 435, N-(Butyl)-N-(3-bromo-1,1-dioxo-1H-benzo[b]thiophen-2-yl)-4-carboxy-benzenesulfonamide]
% Inhibition [6]: 41%

O=C(O)c1ccc(S(=O)(=O)N(CCC(F)(F)F)c2sc3ccccc3c2Cl)cc1 [Compound 480, N-(3-Chloro-benzo[b]thiophen-2-yl)-N-(3,3,3-trifluoro-propyl)-4-carboxy-benzenesulfonamide]
% Inhibition [8]: 39%

O=c1[nH]c(-c2ccc(S(=O)(=O)N(Cc3ccc(F)c(C(F)(F)F)c3)c3cc4ccccc4s3)cc2)no1 [Compound 483, N-(Benzo[b]thiophen-2-yl)-N-(4-fluoro-3-trifluoromethyl-benzyl)-4-(5-oxo-4,5-dihydro-[1,2,4]oxadiazol-3-yl)-benzenesulfonamide]
% Inhibition (dose 30 p.o., Water w/NaOH, 30 min pre-icilin, Na salt form): 19%

Cc1c(N(Cc2ccccc2)S(=O)(=O)c2ccc(C(=O)O)cc2)sc2ccccc12 [Compound 486, N-(3-Methyl-benzo[b]thiophen-2-yl)-N-(benzyl)-4-carboxy-benzenesulfonamide]
% Inhibition [7]: 18%

Cc1c(N(Cc2ccc(F)cc2)S(=O)(=O)c2ccc(C(=O)O)cc2)sc2ccccc12 [Compound 487, N-(3-Methyl-benzo[b]thiophen-2-yl)-N-(4-fluoro-benzyl)-4-carboxy-benzenesulfonamide]
% Inhibition [8]: 99%

Cc1c(N(Cc2ccc(F)c(F)c2)S(=O)(=O)c2ccc(C(=O)O)cc2)sc2ccccc12 [Compound 488, N-(3-Methyl-benzo[b]thiophen-2-yl)-N-(3,4-difluoro-benzyl)-4-carboxy-benzenesulfonamide]
% Inhibition [7]: 73%

Cc1c(N(Cc2ccc(F)c(Cl)c2)S(=O)(=O)c2ccc(C(=O)O)cc2)sc2ccccc12 [Compound 489, N-(3-Methyl-benzo[b]thiophen-2-yl)-N-(4-fluoro-3-chloro-benzyl)-4-carboxy-benzenesulfonamide]
% Inhibition [9]: 99%

Cc1c(N(Cc2ccc(OC(F)F)cc2)S(=O)(=O)c2ccc(C(=O)O)cc2)sc2ccccc12 [Compound 490, N-(3-Methyl-benzo[b]thiophen-2-yl)-N-(4-difluoromethoxy-benzyl)-4-carboxy-benzenesulfonamide]
% Inhibition [7]: 84%

Cc1c(N(Cc2ccc(OC(F)(F)F)cc2)S(=O)(=O)c2ccc(C(=O)O)cc2)sc2ccccc12 [Compound 496, N-(3-Methyl-benzo[b]thiophen-2-yl)-N-(4-trifluoromethoxy-benzyl)-4-carboxy-benzenesulfonamide]
% Inhibition (dose 0.1 p.o., HPbCD, 120 min pre-icilin, Na salt form): 43%
% Inhibition (dose 0.3 p.o., HPbCD, 120 min pre-icilin, Na salt form): 34%
% Inhibition (dose 1 p.o., HPbCD, 120 min pre-icilin, Na salt form): 74% and 79%
% Inhibition (dose 3 p.o., HPbCD, 120 min pre-icilin, Na salt form): 100% and 98%
% Inhibition (dose 10 p.o., HPbCD, 120 min pre-icilin, Na salt form): 99%
% Inhibition (dose 17.8 p.o., HPbCD, 120 min pre-icilin, Na salt form): 100%
% Inhibition [9]: 99%

Cc1c(N(Cc2ccc(C(F)(F)F)c(F)c2)S(=O)(=O)c2ccc(C(=O)O)cc2)sc2ccccc12 [Compound 497, N-(3-Methyl-benzo[b]thiophen-2-yl)-N-(3-fluoro-4-trifluoromethyl-benzyl)-4-carboxy-benzenesulfonamide]
% Inhibition [9]: 96%

O=C(O)c1ccc(S(=O)(=O)N(Cc2ccc(F)c(C(F)(F)F)c2)c2sc3ccccc3c2C2CCCC2)cc1 [Compound 502, N-(3-Cyclopentyl-benzo[b]thiophen-2-yl)-N-(4-fluoro-3-trifluoromethyl-benzyl)-4-carboxy-benzenesulfonamide]
% Inhibition [7]: 14%

Cc1c(N(Cc2cc(C(F)(F)F)ccc2F)S(=O)(=O)c2ccc(C(=O)O)cc2)sc2ccccc12 [Compound 519, N-(3-Methyl-benzo[b]thiophen-2-yl)-N-(2-fluoro-5-trifluoromethyl-benzyl)-4-carboxy-benzenesulfonamide]
% Inhibition [7]: −6%

Cc1c(N(Cc2ccc3c(c2)OC(F)(F)O3)S(=O)(=O)c2ccc(C(=O)O)cc2)sc2ccccc12 [Compound 524, N-(3-Methyl-benzo[b]thiophen-2-yl)-N—(C-(2,2-difluoro-benzo[1,3]dioxol-5-yl)-methyl)-4-carboxy-benzenesulfonamide]
% Inhibition [7]: 82%

O=C(O)c1ccc(S(=O)(=O)N(CCCC(F)(F)F)c2sc3ccccc3c2Cl)cc1 [Compound 537, N-(3-Chloro-benzo[b]thiophen-2-yl)-N-(4,4,4-trifluoro-butyl)-4-carboxy-benzenesulfonamide]
% Inhibition [8]: 42%

CC(C)c1c(N(CCC2CC2)S(=O)(=O)c2ccc(C(=O)O)cc2)sc2ccccc12 [Compound 567, N-(2-Cyclopropyl-ethyl)-N-(3-isopropyl-benzo[b]thiophen-2-yl)-4-carboxy-benzenesulfonamide]
% Inhibition [7]: 55%

Cc1c(N(Cc2ccc(F)c(C(F)(F)F)c2)S(=O)(=O)c2ccc(C(=O)NS(C)(=O)=O)cc2)sc2ccccc12 [Compound 623, N-(3-Methyl-benzo[b]thiophen-2-yl)-N-(4-fluoro-3-trifluoromethyl-benzyl)-4-methanesulfonylaminocarbonyl-benzenesulfonamide]
% Inhibition [7]: 38%
